In PMC7506137, “Selective Phosphodiesterase 1 Inhibitor BTTQ Reduces Blood Pressure in Spontaneously Hypertensive and Dahl Salt Sensitive Rats: Role of Peripheral Vasodilation” (Frontiers in Physiology, 2020):
Values joined by “and” are separate entries in the source; they are usually repeats but may differ in a detail not shown here. Equal values may be shown once. Further values from the same series stand in other lists.

Assay: Plasma exposure (dried blood spot) after single oral dose
Type: in vivo
Conditions: rat; for Unbound Concentration, individual animals: FU 0.053; for Concentration, individual animals: dried blood spot
Protocol: Male Sprague Dawley rats at 6 to 7 weeks were dosed orally by p.o. gavage with different doses of BTTQ formulated in 1% hydroxyethlycellulose (Dow Corning, Midland, MI, United States) (w/v), 0.25% polysorbate 80 (Sigma-Aldrich, St. Louis, MO, United States) (v/v), and 0.05% antifoam (v/v; Dow Corning, Midland, MI, United States) in purified water. Following dosing, ear temperature was measured by using a k-type thermocouple probe digital thermometer (Cole Parmer) every hour for 6 h and then at 24 h. Blood samples for plasma exposure measurement were obtained at the same time. Blood was collected via a tail snip directly into a 20-μL EDTA-coated capillary and immediately spotted onto a Whatman DMPK-C DBS card (GE Healthcare Bio-Sciences). Tail snips were performed by removing approximately 1 mm of the tail by using a scalpel. Blood flow was initiated by gentle squeezing of the tail. No analgesia or anesthesia was used during blood collections. A single sample and spot were collected per time point. The DBS cards were allowed to dry for approximately 2 h at room temperature, after which the cards were placed in a zip-top bag, stored, and shipped at ambient temperature.

[1] = oral 0.03 mg/kg, 1 h, 0.03 mg/kg
[2] = oral 0.03 mg/kg, 2 h, 0.03 mg/kg
[3] = oral 0.03 mg/kg, 3 h, 0.03 mg/kg
[4] = oral 0.03 mg/kg, 4 h, 0.03 mg/kg

## O=c1c2nnc(C3(C4CC4)CC3)n2c2c(n1CC1CC1)CCCC2 [BTTQ, 1-[1,1′-bi(cyclopropyl)-1-yl]-5-(cyclopropylmethyl)-6,7,8,9-tetrahydro[1,2,4]triazolo[4,3-A]quinoxaline-4(5H)-one]
[1]
  Unbound Concentration, individual animals: 1.57 nM and 3.56 nM and 2.89 nM and 2.26 nM and 2.32 nM
  Concentration, individual animals: 29.6 nM and 67.1 nM and 54.5 nM and 42.7 nM and 43.7 nM
[2]
  Unbound Concentration, individual animals: 3.1 nM and 3.05 nM and 2.63 nM and 2.35 nM
  Concentration, individual animals: 58.4 nM and 57.5 nM and 49.7 nM and 44.4 nM
[3]
  Unbound Concentration, individual animals: 2.34 nM and 2.11 nM and 2.53 nM and 2.14 nM
  Concentration, individual animals: 44.1 nM and 39.8 nM and 47.7 nM and 40.4 nM
[4]
  Unbound Concentration, individual animals: 1.87 nM and 2.05 nM and 1.74 nM (2×)
  Concentration, individual animals: 35.2 nM and 38.7 nM and 32.8 nM and 32.9 nM
Oral 0.3 mg/kg, 5 h, 0.3 mg/kg
  Unbound Concentration, individual animals: 9.96 nM and 8.69 nM
  Concentration, individual animals: 151 nM (2×) and 188 nM and 164 nM
Oral 0.3 mg/kg, 6 h, 0.3 mg/kg
  Unbound Concentration, individual animals: 7.26 nM and 5.26 nM and 6.94 nM (2×)
  Concentration, individual animals: 137 nM and 99.3 nM and 131 nM (2×)
Oral 1 mg/kg, 1 h, 1 mg/kg
  Unbound Concentration, individual animals: 74.7 nM and 137 nM and 118 nM and 65.2 nM and 67.8 nM
  Concentration, individual animals: 1410 nM and 2590 nM and 2220 nM and 1230 nM and 1280 nM
Oral 1 mg/kg, 2 h, 1 mg/kg
  Unbound Concentration, individual animals: 105 nM and 118 nM and 64.7 nM and 62 nM
  Concentration, individual animals: 1980 nM and 2230 nM and 1220 nM and 1170 nM
Oral 1 mg/kg, 3 h, 1 mg/kg
  Unbound Concentration, individual animals: 75.3 nM and 73.7 nM and 48.9 nM and 48.4 nM
  Concentration, individual animals: 1420 nM and 1390 nM and 923 nM and 914 nM
Oral 1 mg/kg, 4 h, 1 mg/kg
  Unbound Concentration, individual animals: 67.3 nM and 73.7 nM and 47.9 nM and 49.7 nM
  Concentration, individual animals: 1270 nM and 1390 nM and 903 nM and 937 nM
Oral 1 mg/kg, 5 h, 1 mg/kg
  Unbound Concentration, individual animals: 63.1 nM and 61.5 nM and 43.6 nM and 38.6 nM
  Concentration, individual animals: 1190 nM and 1160 nM and 822 nM and 728 nM
Oral 1 mg/kg, 6 h, 1 mg/kg
  Unbound Concentration, individual animals: 39.6 nM and 38.6 nM and 39.8 nM and 47.4 nM
  Concentration, individual animals: 747 nM and 728 nM and 750 nM and 894 nM
Oral 1 mg/kg, 24 h, 1 mg/kg
  Unbound Concentration, individual animals: 0.933 nM and 1.39 nM and 1.9 nM and 3.3 nM and 3.12 nM
  Concentration, individual animals: 17.6 nM and 26.2 nM and 35.9 nM and 62.3 nM and 58.8 nM
Oral 3 mg/kg, 1 h, 3 mg/kg
  Unbound Concentration, individual animals: 190 nM and 257 nM and 218 nM and 178 nM
  Concentration, individual animals: 3580 nM and 4850 nM and 4110 nM and 3350 nM
Oral 3 mg/kg, 2 h, 3 mg/kg
  Unbound Concentration, individual animals: 151 nM and 173 nM and 298 nM and 189 nM
  Concentration, individual animals: 2840 nM and 3270 nM and 5630 nM and 3560 nM
Oral 3 mg/kg, 3 h, 3 mg/kg
  Unbound Concentration, individual animals: 125 nM and 160 nM and 208 nM and 178 nM
  Concentration, individual animals: 2350 nM and 3020 nM and 3920 nM and 3360 nM
Oral 3 mg/kg, 4 h, 3 mg/kg
  Unbound Concentration, individual animals: 101 nM and 135 nM and 189 nM and 158 nM
  Concentration, individual animals: 1910 nM and 2540 nM and 3570 nM and 2990 nM
Oral 3 mg/kg, 5 h, 3 mg/kg
  Unbound Concentration, individual animals: 92.8 nM and 105 nM and 125 nM and 110 nM
  Concentration, individual animals: 1750 nM and 1990 nM and 2350 nM and 2080 nM
Oral 3 mg/kg, 6 h, 3 mg/kg
  Unbound Concentration, individual animals: 68.4 nM and 91.2 nM and 93.8 nM and 116 nM
  Concentration, individual animals: 1290 nM and 1720 nM and 1770 nM and 2190 nM
Oral 3 mg/kg, 24 h, 3 mg/kg
  Unbound Concentration, individual animals: 5.41 nM and 1.26 nM and 16.1 nM and 1.52 nM and 0.716 nM
  Concentration, individual animals: 102 nM and 23.7 nM and 303 nM and 28.6 nM and 13.5 nM
